Among the data in the supplement of paper PMC4604168 (melanoma cell lines) are cell count values, retold here.

SMILES strings stand for the structures. This is one part of the list. Most values come without repeats; read them as rough.
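Note: cell number obtained by counting DAPI-stained nuclei in high-throughput microscope images with image analysis software, screen run in 1,536-well plates.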

The first test has as its system LB2518-MEL. As to the kind of experiment: cell count relative to DMSO control; melanoma cells; higher = more viable cells. Conditions: library dose: low library concentration; 72 h.
In turn, `Clc1ccc(Nc2nnc(Cc3ccncc3)c3ccccc23)cc1` [vatalanib] + Cn1c(Nc2ccc(C(F)(F)F)cc2)nc2cc(Oc3ccnc(-c4ncc(C(F)(F)F)[nH]4)c3)ccc21 [CHIR265] (first compound 2 µM, partner dose 0.08 µM) gave a cell count of 70.5%.

Molecule `Cn1c(Nc2ccc(C(F)(F)F)cc2)nc2cc(Oc3ccnc(-c4ncc(C(F)(F)F)[nH]4)c3)ccc21` + C[C@]1(c2nc3c(C(N)=O)cccc3[nH]2)CCCN1 [Veliparib] (first compound 0.08 µM, partner dose 1.4 µM) registered a cell count of 42.1%.

The molecule `OCc1c[nH]c2ccccc12` [Indole-3-carbinol] + Cc1nc(Nc2ncc(C(=O)Nc3c(C)cccc3Cl)s2)cc(N2CCN(CCO)CC2)n1 [dasatanib] (first compound 0.8 µM, partner dose 0.004 µM) gave a cell count of 87.8%.

Take `Cn1c(Nc2ccc(C(F)(F)F)cc2)nc2cc(Oc3ccnc(-c4ncc(C(F)(F)F)[nH]4)c3)ccc21` + COCC[n+]1c2c(n(Cc3cnccn3)c1C)C(=O)c1ccccc1C2=O [YM155] (first compound 0.08 µM, partner dose 0.0004 µM): the cell count came to 49.4%.

In turn, `Clc1ccc(Nc2nnc(Cc3ccncc3)c3ccccc23)cc1` [vatalanib] + C=CCn1c(=O)c2cnc(Nc3ccc(N4CCN(C)CC4)cc3)nc2n1-c1cccc(C(C)(C)O)n1 [MK1775] (first compound 2 µM, partner dose 0.02 µM) had a cell count of 88.9%.

With `Clc1ccc(Nc2nnc(Cc3ccncc3)c3ccccc23)cc1` [vatalanib] + Nc1cccc2c1CN(C1CCC(=O)NC1=O)C2=O [lenalidomide] (first compound 2 µM, partner dose 1 µM), the cell count came to 108%.

The subject of a further test is LOXIMVI. The description is as above. The settings on record: library dose: low library concentration; 72 h.
In turn, `OCc1c[nH]c2ccccc12` [Indole-3-carbinol] + COCC[n+]1c2c(n(Cc3cnccn3)c1C)C(=O)c1ccccc1C2=O [YM155] (first compound 0.8 µM, partner dose 0.0004 µM) displayed a cell count of 116%.

Take `OCc1c[nH]c2ccccc12` [Indole-3-carbinol] + C[C@]1(c2nc3c(C(N)=O)cccc3[nH]2)CCCN1 [Veliparib] (first compound 0.8 µM, partner dose 1.4 µM): the cell count worked out at 112%.

Molecule `OCc1c[nH]c2ccccc12` [Indole-3-carbinol] + C#Cc1cccc(Nc2ncnc3cc(OCCOC)c(OCCOC)cc23)c1 [erlotinib] (first compound 0.8 µM, partner dose 0.8 µM) yielded a cell count of 81.2%.

On to `C#Cc1cccc(Nc2ncnc3cc(OCCOC)c(OCCOC)cc23)c1` [erlotinib] + Cn1nnc2c(C(N)=O)ncn2c1=O [temozolomide] (first compound 0.8 µM, partner dose 2 µM), for which the cell count came out at 69.3%.

For `C#Cc1cccc(Nc2ncnc3cc(OCCOC)c(OCCOC)cc23)c1` [erlotinib] + Cc1nc(Nc2ncc(C(=O)Nc3c(C)cccc3Cl)s2)cc(N2CCN(CCO)CC2)n1 [dasatanib] (first compound 0.8 µM, partner dose 0.004 µM), the cell count is 70.6%.

As for `Cn1c(Nc2ccc(C(F)(F)F)cc2)nc2cc(Oc3ccnc(-c4ncc(C(F)(F)F)[nH]4)c3)ccc21` + Cn1nnc2c(C(N)=O)ncn2c1=O [temozolomide] (first compound 0.08 µM, partner dose 2 µM), the cell count was determined as 56.9%.

For the molecule `COCC[n+]1c2c(n(Cc3cnccn3)c1C)C(=O)c1ccccc1C2=O` + C[C@]1(c2nc3c(C(N)=O)cccc3[nH]2)CCCN1 [Veliparib] (first compound 0.0004 µM, partner dose 1.4 µM), the cell count stood at 67.4%.

`OCc1c[nH]c2ccccc12` [Indole-3-carbinol] + COc1cc(Nc2ncc(F)c(Nc3ccc4c(n3)NC(=O)C(C)(C)O4)n2)cc(OC)c1OC [Tamatinib] (first compound 0.8 µM, partner dose 0.4 µM) came in with a cell count of 71.2%.

`Clc1ccc(Nc2nnc(Cc3ccncc3)c3ccccc23)cc1` [vatalanib] + C[C@@H]1CCN(C(=O)CC#N)C[C@@H]1N(C)c1ncnc2[nH]ccc12 [CP690550] (first compound 2 µM, partner dose 1 µM) showed a cell count of 109%.

`C#Cc1cccc(Nc2ncnc3cc(OCCOC)c(OCCOC)cc23)c1` [erlotinib] + COCC[n+]1c2c(n(Cc3cnccn3)c1C)C(=O)c1ccccc1C2=O [YM155] (first compound 0.8 µM, partner dose 0.0004 µM) registered a cell count of 73.7%.
